Results as given in article PMC4336329 (PLoS ONE, 2015).
About 14,000 (4.5%) of roughly 310,000 compounds showed an effect of 50% or more. Effects have a minus sign here. Some of the results follow.

Molecular target: human ether-à-go-go-related gene (hERG) potassium channel (human, UniProt Q12809)
Test: primary screen, population patch clamp on CHO cells stably expressing hERG
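Note: peak tail current of the secondary pulse compared with the same well before compound.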

human ether-à-go-go-related gene (hERG) potassium channel, sequence (Q12809 whole entry, looked up): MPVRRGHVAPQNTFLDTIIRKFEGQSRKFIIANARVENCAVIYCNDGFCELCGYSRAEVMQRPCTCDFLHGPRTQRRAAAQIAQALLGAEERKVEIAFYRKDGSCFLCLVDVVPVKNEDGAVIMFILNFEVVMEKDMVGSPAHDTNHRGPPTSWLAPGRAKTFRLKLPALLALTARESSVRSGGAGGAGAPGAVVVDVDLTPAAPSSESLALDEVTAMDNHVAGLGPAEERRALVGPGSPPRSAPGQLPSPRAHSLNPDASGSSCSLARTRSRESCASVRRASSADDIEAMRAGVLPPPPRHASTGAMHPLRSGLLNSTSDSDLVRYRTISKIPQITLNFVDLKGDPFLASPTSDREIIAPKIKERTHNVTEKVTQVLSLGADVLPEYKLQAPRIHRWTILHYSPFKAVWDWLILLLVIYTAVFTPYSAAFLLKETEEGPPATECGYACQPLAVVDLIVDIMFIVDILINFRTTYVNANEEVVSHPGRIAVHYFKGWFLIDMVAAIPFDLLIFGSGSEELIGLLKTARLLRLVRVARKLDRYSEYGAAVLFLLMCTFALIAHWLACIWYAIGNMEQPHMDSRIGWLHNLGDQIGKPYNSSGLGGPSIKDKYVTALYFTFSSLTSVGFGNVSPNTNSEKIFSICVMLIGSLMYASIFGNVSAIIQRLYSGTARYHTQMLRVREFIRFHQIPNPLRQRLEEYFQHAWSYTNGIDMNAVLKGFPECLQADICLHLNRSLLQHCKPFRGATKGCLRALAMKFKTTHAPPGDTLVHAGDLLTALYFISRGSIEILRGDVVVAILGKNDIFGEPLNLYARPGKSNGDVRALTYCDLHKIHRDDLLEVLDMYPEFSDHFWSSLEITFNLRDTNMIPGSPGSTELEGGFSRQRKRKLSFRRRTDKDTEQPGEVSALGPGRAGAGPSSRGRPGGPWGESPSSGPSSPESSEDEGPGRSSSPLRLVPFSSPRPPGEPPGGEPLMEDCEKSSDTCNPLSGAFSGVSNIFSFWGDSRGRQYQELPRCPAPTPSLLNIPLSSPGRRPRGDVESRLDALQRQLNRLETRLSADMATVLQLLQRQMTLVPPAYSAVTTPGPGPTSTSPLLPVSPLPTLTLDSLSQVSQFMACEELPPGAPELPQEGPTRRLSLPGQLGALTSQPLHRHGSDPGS

Row | SMILES | hERG current change (%, negative = inhibition) at 10uM [%]
1 | Cc1ccc2c(C(=O)N3CCN(c4ccccc4)CC3)cc(-c3cccnc3)nc2c1C | 4.03
2 | COc1ccc(C(=O)O)cc1S(=O)(=O)N1CCSCC1 | 18.4
3 | NNC(=O)c1csc(COc2cc(Cl)cc(Cl)c2)n1 | 12.2
4 | CC(C)CN(C(=O)c1ccco1)c1nc2ccccc2s1 | 17.1
5 | N#CCCN(C(=O)Cn1nc(C(=O)O)c2ccccc2c1=O)c1ccccc1 | 4.44
6 | c1cncc(Nc2nc(-c3cccs3)cs2)c1 | 0.287
7 | COc1cc(CC(=O)Nc2ccc(S(=O)(=O)Nc3ncccn3)cc2)cc(OC)c1OC | 11.1
8 | CC(=O)c1ccc(OCC(O)CN2CCN(c3ccc(F)cc3)CC2)cc1.Cl (stereo not shown) | -67.4
9 | COc1ccc(C)cc1N(C(=O)c1ccccc1F)c1nc2ccccc2s1 | -6.53
10 | CCOC(=O)C1=NN(c2ccccc2)C2C(=O)N(c3ccccc3OC)C(=O)C12 (stereo not shown) | 14.5
11 | CC/C(C)=C1\SC(N2CCN(C(C)=O)CC2)=NC1=O | 7.56
12 | COc1ccc(CC(NC(C)=O)C(=O)NC2CCN(C(=O)c3cnccn3)CC2)cc1 (stereo not shown) | -2.32
13 | CCS(=O)(=O)c1ccc2oc(SCC(=O)NC(C)C3CC4CCC3C4)nc2c1 (stereo not shown) | -30.3
14 | Cc1cccc(NS(=O)(=O)c2cc(C(=O)N3CCCCCC3)ccc2C)c1 | -13.6
15 | CCCNCCC(c1ccco1)c1ccccc1OC (stereo not shown) | -41.8
16 | C[C@]12CC[C@@H]3c4ccc(O)cc4CC[C@H]3[C@@H]1C[C@@H](O)[C@@H]2O[C@@H]1O[C@H](C(=O)O)[C@@H](O)[C@H](O)[C@H]1O | 14.6
17 | CC(=O)OC(C)=O | 15.3
18 | CCCCCCCCOc1ccc(C2CC(=O)NC2=O)cc1 (stereo not shown) | 8.59
19 | Cc1ccc(OCC(=O)Nc2ccc3c(c2)OCCO3)cc1C | 6.88
20 | Fc1ccc(CNC(=S)Nc2ccc(Cl)cc2)cc1 | 9.6
21 | C[C@H](O)C(=O)C1=Nc2c(nc(N)[nH]c2=O)NC1 | 19.9
22 | CCC1(C)Cc2ccccc2-c2nc(SCC(N)=O)[nH]c(=O)c21 (stereo not shown) | 15.4

Row | SMILES | hERG current change (%, negative = inhibition) at 10uM [%]
23 | Cc1ccc(NC(=O)C2Cc3ccccc3CN2C(=O)c2ccco2)cc1S(=O)(=O)N(C)C (stereo not shown) | -20.2
24 | CSc1ccccc1C(=O)C1CCCN(Cc2c(C)n(C)n(-c3ccccc3)c2=O)C1 (stereo not shown) | -16.2
25 | CCC(Sc1nc2c(c(=O)[nH]1)CCC2)C(=O)Nc1cccc(OC)c1 (stereo not shown) | -7.58
26 | C=CCNC(=O)c1ccccc1NC(=O)C1CC(=O)N(C(C)C)C1 (stereo not shown) | 9.7
27 | O=C(CN1CCCC1)Nc1ccc(Cl)cc1C(F)(F)F | 0.32
28 | Cc1ccc(SCC(=O)Nc2ccc(N3CCOCC3)cc2)cc1C | 8.9
29 | O=C(N/N=C/c1cccc([N+](=O)[O-])c1)c1cc2c(ccc3ccccc32)o1 | 15.7
30 | COc1ccccc1NC(=O)NNC(=O)c1cc2ccccc2cc1O | 19
31 | O=C(Cc1c(C(=O)O)[nH]c2ccccc12)Nc1ccc2c(c1)OCO2 | 7.38
32 | Cn1c(=NC(=O)COc2ccccc2)sc2cccc(F)c21 | 1.94
33 | Cc1nc2ccccc2c(=O)n1NC(=O)c1cc(Br)ccc1Cl | -17.6
34 | Nn1cnc2cc3ccccc3cc2c1=O | 8.16
35 | COc1ccccc1C(=O)NC(=O)COC(=O)c1ccc(C)o1 | -2.16
36 | O=C(Nc1ccc(F)cc1)Oc1ccc[nH]c1=O | 12
37 | CS(=O)(=O)N1CCCC(C(=O)N2CCOCC2)C1 (stereo not shown) | 7.7
38 | Cc1ccc(C)c(NC(=O)CN(C)S(=O)(=O)c2cccc3cccnc23)c1 | -10.4
39 | CCOc1ccc(NC(=O)C2=C(C)C(=O)OC23CCC(C)CC3)cc1 (stereo not shown) | -0.164
40 | CC1CN(C(=O)Nc2ccc3c(c2)OCO3)CC(C)O1 (stereo not shown) | 7.02
41 | CCN(CC)S(=O)(=O)c1ccc2[nH]c(=O)[nH]c2c1 | -11.4
42 | CCCCCSc1nnc2c(n1)OC(C)N(C(C)=O)c1ccccc1-2 (stereo not shown) | -41
43 | CCOC(=O)c1ccc(NC(=O)c2ccccc2C)cc1 | -21.2
44 | O=C(CSc1nnc(-c2ccc(O)cc2)o1)Nc1ccccc1Br | 20.1

Row | SMILES | hERG current change (%, negative = inhibition) at 10uM [%]
45 | CCOc1ccc(NC(=O)C2CCCN(S(C)(=O)=O)C2)cc1 (stereo not shown) | 23.5
46 | N#CC1=C2C=CC=CN2CC1=O | 2.52
47 | Cc1cc2c(cc(C(=O)OC(C(=O)NCC3CCCO3)C(C)C)n2C)o1 (stereo not shown) | 6.2
48 | O=C(NCc1cccnc1)Nc1ccccc1F | 6.96
49 | COc1ccc(C(=O)C2CCCN(Cc3c(C)[nH]c4ccccc34)C2)c(OC)c1 (stereo not shown) | -70.1
50 | Cc1cc(C)cc(-n2c(N)c(C(=O)Nc3c(C)n(C)n(-c4ccccc4)c3=O)c3nc4ccccc4nc32)c1 | -36.5
51 | O=C(COC(=O)CSc1ccc([N+](=O)[O-])cc1)NC1CCCCCCC1 | 39.1
52 | CS(=O)(=O)N(CC(=O)NCc1ccccc1)Cc1ccc(Cl)cc1 | -25.4
53 | CC1CN(c2ccc(C(F)(F)F)cc2[N+](=O)[O-])CCN1S(C)(=O)=O (stereo not shown) | -56.9
54 | COc1ccc(-c2cc(=O)oc3cc(OCC(C)=O)ccc23)cc1 | -74.6
55 | COc1ccccc1P(=O)(Cc1ccccc1)c1ccccc1 (stereo not shown) | 3.3
56 | O=C(O)CCC(=O)Nc1cccc(C(=O)c2ccccc2)c1 | 16.5
57 | COc1ccc(-c2nc(C3CCCCC3)no2)cc1OC | -6.93
58 | CCN1CCN(c2ccc(Nc3ccnc4ccccc34)cc2)CC1 | -12.7
59 | O=C(NCCN1CCOCC1)c1ccc(CSCc2cccc(Cl)c2)o1 | -43.7
60 | O=[N+]([O-])c1ccc(NCCNS(=O)(=O)c2ccccc2)cc1 | -38.9
61 | Cc1ccc(NC(=O)COC(=O)c2ccc3c(c2)C(=O)N(CCc2ccccc2)C3=O)c(C)c1 | 23.9
62 | COc1cc(C(C2C(=O)CC(C)(C)CC2=O)C2C(=O)CC(C)(C)CC2=O)ccc1OC(C)=O | 8.75
63 | O=C(Nc1nc(-c2ccccn2)cs1)c1cc(S(=O)(=O)N2CCOCC2)ccc1F | -21.6
64 | c1ccc(-c2nc(NCc3cccs3)c3ccccc3n2)cc1 | 7.27
65 | O=C(Nc1c2c(nn1-c1ccc([N+](=O)[O-])cc1)CS(=O)(=O)C2)C1CC1 | -30.6
66 | Nc1c(-c2ccccc2)nc(Cl)nc1-c1ccccc1 | -7.33

Row | SMILES | hERG current change (%, negative = inhibition) at 10uM [%]
67 | COc1cccc(CNC(=O)c2ccc3c(c2)N(C)CCS3)c1OC | 15.6
68 | Cc1ccc(C(=O)OC2CCS(=O)(=O)c3sccc32)cc1 (stereo not shown) | -17.9
69 | O=C(CN1CC(=O)Nc2ccccc21)NCCc1ccc(Cl)cc1Cl | 58.5
70 | NCc1nc(-c2ccc(Cl)cc2)no1 | 11.2
71 | CN(C)S(=O)(=O)c1ccc(N2CCCC2)c(C(=O)NC2CCC(O)CC2)c1 (stereo not shown) | 13.2
72 | COc1cc2occc2c2oc(=O)ccc12 | 0.24
73 | COc1ccc(NC(=O)Cn2cnc3sc(C)c(S(=O)(=O)N4CCN(C)CC4)c3c2=O)cc1OC | 18.3
74 | COCCCN=C1NN=C(c2cc(C)n(Cc3ccco3)c2C)CS1.Cl | -47.8
75 | FC(F)(F)c1cccc(NC(=S)NCC(c2cccnc2)N2CCOCC2)c1 (stereo not shown) | -21.4
76 | CCCn1c(=N)c(S(=O)(=O)c2ccccc2)cc2c(=O)n3cccc(C)c3nc21 | 0.577
77 | CCOCCCNC(=O)C(NC(=O)CNC(=O)c1ccccc1)c1ccc(C)cc1 (stereo not shown) | -2.53
78 | O=C(NC1CCCCC1)C(c1ccncc1)N(C(=O)c1csnn1)c1cccc(F)c1 (stereo not shown) | -12.3
79 | Cn1c(-c2ccccc2[N+](=O)[O-])[n+](C)c2ccccc21.[Cl-] | 12.4
80 | Cc1ccc(-n2ncc(C(=O)N3CCN(C(=O)c4ccco4)CC3)c2C2CCN(C(=O)OC(C)(C)C)CC2)cc1C | 0.366
81 | CN(C(=O)COC(=O)c1ccccc1NCc1ccco1)c1c(N)n(Cc2ccccc2)c(=O)[nH]c1=O | -3.77
82 | CC1CCC/C(=N\Nc2ccc(Cl)c(C(=O)O)c2)C1 (stereo not shown) | 6.46
83 | CCN1C(=O)c2cccc3cccc1c23 | 4.94
84 | Cc1c(NC(=O)CSc2nnc(Nc3ccccc3)s2)c(=O)n(-c2ccccc2)n1C | -35.1
85 | O=C(NN1C(=O)/C(=C\c2cccnc2)SC1=S)C(c1ccccc1)c1ccccc1 | 3.58
86 | CC(=O)/C(=N/Nc1cccc(Cl)c1)Sc1nnc(C(O)c2ccccc2)n1-c1ccccc1 (stereo not shown) | -3.07
87 | COc1cccc(Cc2n[nH]c(=S)n2Cc2ccco2)c1 | 13.9
88 | COCCCNC(=O)/C=C1\Sc2ccccc2N(Cc2ccccc2F)C1=O | -12.6
